The record followed here is ChEMBL document CHEMBL1201862, “PubChem BioAssay data set” (2004).

Molecules are shown by their SMILES.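 Exposure lasted 48 hours, with cells grown in 96-well plates and compounds tested at five concentrations. Here, GI50 denotes the concentration required for 50% inhibition of growth.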 The source made the active and inactive calls. No stated cut-off is given here; in the data, active = GI50 up to about 1.1 µM and inactive = higher.

For this test, the system named is NCI-H322M. Nature of the test: inhibition of tumour cell growth, NCI panel, 48 h.
For the compound `O=C1c2ccccc2C(=O)c2[nH]cnc21`, the GI50 was inactive: 67.5 µM.
As to `C=CCNc1nc2c(s1)C(=O)c1ccccc1C2=O`, the GI50 is inactive: 14.6 µM.
Consider `C/C(=N\N(c1ccccc1)c1ccccc1)c1c(O)cc(C)oc1=O`, for which the GI50 was inactive: > 100 µM.
Consider `COC(=O)C1CCC(=O)N1CN(C(C)=O)c1cc(OC)ccc1OC` (centres undefined), for which the GI50 is inactive: > 100 µM.
As to `Cc1nc(SCC(=O)Nc2ccc(Cl)cc2)c2sc(=S)n(-c3ccccc3)c2n1`, the GI50 is inactive: > 10 µM.
In the case of `c1cc2nnsc2s1`, the GI50 was inactive: > 100 µM.
Under `CC(=O)C1C(=O)C(=O)N(CCN2C(=O)C(=O)C(C(C)=O)C2=O)C1=O` (centres undefined) stands inactive: > 100 µM; under `C/C(=N\Nc1nc2ccccc2n1C)c1ccc2ccccc2n1`, active: 0.618 µM.
In the case of `CC[N+]1(C)CCC(O)(/C=C/c2ccc(Cl)cc2)C(C(=O)/C=C/c2ccc(Cl)cc2)C1` (centres undefined), the GI50 is inactive: 14.9 µM.
In the case of `O=[N+]([O-])c1c(/C=N/Nc2ccccc2)oc(-c2ccc3c(c2)OCO3)c1-c1ccc2c(c1)OCO2`, the GI50 was inactive: 94.4 µM.
The figure for `COc1ccc(-n2c(=O)c3nc(S)[nH]c3n(-c3ccc(OC)cc3)c2=S)cc1` is inactive: > 100 µM.
On to `N#Cc1ccc(/C=N/C23CC4CC(CC(C4)C2)C3)cc1`, for which the GI50 is inactive: > 100 µM.
Turning to `O=C1C=Cc2c(Cl)sc(Cl)c21`, the GI50 was inactive: 15 µM.
Consider `NC(=O)NN=C1Cc2ccccc2C1`, for which the GI50 was inactive: > 100 µM.
As to `O=C1Cc2c(-c3ccccc3)cc(-c3ccc4ccccc4c3)nc2-c2ccccc2N1`, the GI50 was inactive: 10.4 µM.
`Nc1ccc(Oc2ccc(C3(c4ccc(Oc5ccc(N)cc5)cc4)C4CC5CC(C4)CC3C5)cc2)cc1`: the GI50 was active: 0.133 µM.
For `COC(=O)CCC(NC(=S)N/N=C/c1ccco1)C(=O)OC` (centres undefined), the GI50 was inactive: > 100 µM.
With `COC(=O)/C=C(\C)CC/C=C(\C)CCC(O)C(C)(C)O` (centres undefined), the GI50 was inactive: > 100 µM.
`COc1ccc(C(NS(=O)(=O)c2ccc(C)cc2)c2c(C(CBr)OC)c3ccccc3n2S(=O)(=O)c2ccccc2)cc1OC` (centres undefined): the GI50 is inactive: > 100 µM.
On to `CCN(CC)CCNc1ccc2ncn3c4cc(O)ccc4c(=O)c1c23`, for which the GI50 was inactive: 2.47 µM.
In the case of `S=C1CCSc2c(ccc3ccccc23)N1`, the GI50 was inactive: > 100 µM.
In the case of `Cc1nc(N)nc(N)c1N1CCN(Cc2ccccc2)CC1`, the GI50 was inactive: 36.4 µM.
In the case of `CNc1cccc2c1C(C)C[C@]1(C)C(=O)Nc3ccccc3[C@H]21` (some centres undefined), the GI50 is inactive: 28.6 µM.
Take `CCCCSC1=N/C(=C\c2ccccc2O)C(=O)N1`: the GI50 is inactive: > 100 µM.
With `Cc1ccc(S(=O)(=O)CC(=O)CC(=O)C(=O)Nc2cccc(C(F)(F)F)c2)cc1`, the GI50 was inactive: > 100 µM.
As to `Cc1ccccc1NC(=O)c1nc(S)nc(N)c1-c1ccccc1C`, the GI50 was inactive: > 100 µM.
On to `CC(=O)O[C@@H]1C=C(C)[C@H](CBr)O[C@@]2(C)CC[C@H](Br)C(C)(C)[C@H]12`, for which the GI50 is inactive: > 100 µM.
Consider `Cc1cccc(O)c(=O)c1`, for which the GI50 is inactive: 19.2 µM.
As to `CCOC(=O)Nc1ccc(S(=O)(=O)I)cc1.CCOC(=O)Nc1ccc(S(=O)(=O)I)cc1.CN(C=O)C1=C(N(C)C=O)C(N(C)C=O)=C(N(C)C=O)C(=O)C1=O`, the GI50 was inactive: > 100 µM.
Turning to `O=C1C(N2C(=O)c3ccccc3C2=O)CN1C(COCc1ccccc1)c1ccc(OCc2ccccc2)cc1` (centres undefined), the GI50 is inactive: > 100 µM.
`COc1cc2c(c(OC)c1OC)-c1ccc(SC)c(=O)cc1[C@@H](OC(C)=O)CC2`: the GI50 is active: < 0.01 µM.
Under `C=C(CN(C)C)C(=O)c1ccccc1` stands inactive: > 39.5 µM.
`CN(C)CCC(=O)c1ccccc1`: the GI50 is inactive: > 100 µM.
Take `C=C1C(=O)OC2CC3(C)CCCC(C)C3=CC12` (centres undefined): the GI50 is inactive: 15.6 µM.
